This is one part of the list. The list includes weakly bound sequences.

The target of the assay is MaxL homodimer (UniProt P61244). Briefly: universal protein-binding microarray (PBM). The note with it: PBS-based mixture, 10 nM His-tagged protein dimer, 2% milk, 200 ng/uL BSA, 50 ng/uL salmon testes DNA, 0.02% TX-100; detection with Alexa 488 anti-His …; high values mean tight binding; most listed sequences are background and not binding sites; double strand, one strand shown.
Sequence of UniProt P61244 (P61244 whole entry): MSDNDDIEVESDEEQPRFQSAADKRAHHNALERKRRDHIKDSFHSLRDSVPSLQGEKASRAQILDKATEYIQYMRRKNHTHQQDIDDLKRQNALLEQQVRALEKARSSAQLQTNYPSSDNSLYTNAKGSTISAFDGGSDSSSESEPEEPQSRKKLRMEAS
In the case of CCACCCCC, the binding signal (normalized occupancy) came out at 0.0922.

As for GGGGACAA, the binding signal (normalized occupancy) was 0.077.

For GGTTCAAA, the binding signal (normalized occupancy) came out at 0.0691.

For the sequence GATTTAAA, the binding signal (normalized occupancy) was 0.0717.

As for CAAATGTG, the binding signal (normalized occupancy) worked out at 0.0879.

Consider ATCACCAA, for which the binding signal (normalized occupancy) was 0.0777.

As for CGGACACC, the binding signal (normalized occupancy) came to 0.0749.

Turning to GTACCCTA, the binding signal (normalized occupancy) stood at 0.0755.

GACTCTAA: the binding signal (normalized occupancy) turned out to be 0.0823.

Take ACGGCCGA: the binding signal (normalized occupancy) was determined as 0.0666.

Turning to CCATGAAA, the binding signal (normalized occupancy) came to 0.08.

AGGTAACA: the binding signal (normalized occupancy) stood at 0.0823.

Regarding ATGGACGC, the binding signal (normalized occupancy) was found to be 0.0695.

In the case of TATGTCCA, the binding signal (normalized occupancy) is 0.0796.

GTGCCCTA: the binding signal (normalized occupancy) was found to be 0.0772.

In the case of CCATACCG, the binding signal (normalized occupancy) is 0.0846.

Turning to CAGTAGTA, the binding signal (normalized occupancy) stood at 0.0753.

For CCTCATCA, the binding signal (normalized occupancy) was 0.0833.

Take AGCACCTG: the binding signal (normalized occupancy) amounted to 0.0844.

On to CAAAGAGG, for which the binding signal (normalized occupancy) amounted to 0.0732.

Consider AAAGCAGC, for which the binding signal (normalized occupancy) turned out to be 0.0688.

Regarding ATCGTATC, the binding signal (normalized occupancy) came out at 0.0783.

GCATCTAA: the binding signal (normalized occupancy) was 0.0781.

Turning to CATTCAGG, the binding signal (normalized occupancy) turned out to be 0.0758.

With CCCCGCGC, the binding signal (normalized occupancy) is 0.0778.

For the sequence TAAAATCA, the binding signal (normalized occupancy) was determined as 0.0744.

For AAATACCA, the binding signal (normalized occupancy) amounted to 0.078.

In the case of CGAGTACA, the binding signal (normalized occupancy) turned out to be 0.0727.

Take ACTTCTCA: the binding signal (normalized occupancy) stood at 0.0786.

For the sequence ACGGATGG, the binding signal (normalized occupancy) worked out at 0.078.

Regarding CTCCAAAA, the binding signal (normalized occupancy) worked out at 0.0786.

Consider TCCTGAAA, for which the binding signal (normalized occupancy) worked out at 0.0737.

Consider AACCGTCA, for which the binding signal (normalized occupancy) came out at 0.0747.

In the case of TAACGAGA, the binding signal (normalized occupancy) is 0.0745.

Take ACCTTTTG: the binding signal (normalized occupancy) stood at 0.0756.

GAATCTGC: the binding signal (normalized occupancy) is 0.075.

As to CTACTAAG, the binding signal (normalized occupancy) was determined as 0.0755.

Turning to CCACTTAC, the binding signal (normalized occupancy) came out at 0.077.

For CAACTAGG, the binding signal (normalized occupancy) worked out at 0.0717.

Consider CCCCAGCA, for which the binding signal (normalized occupancy) was 0.0815.

For ATTCAGGG, the binding signal (normalized occupancy) came to 0.0745.

As to AGACCACT, the binding signal (normalized occupancy) amounted to 0.074.

Regarding AGGTAACC, the binding signal (normalized occupancy) came out at 0.0749.

As to AAAAGATT, the binding signal (normalized occupancy) turned out to be 0.0766.

On to TCCGGTCA, for which the binding signal (normalized occupancy) stood at 0.0722.

AAAATAGA: the binding signal (normalized occupancy) was determined as 0.0755.

In the case of AGACGAGC, the binding signal (normalized occupancy) amounted to 0.0621.

Take TCTGAGCA: the binding signal (normalized occupancy) is 0.073.

As for CCTCACTA, the binding signal (normalized occupancy) worked out at 0.08.

Regarding CCCAACCC, the binding signal (normalized occupancy) was found to be 0.0752.

Consider CAGGTGAC, for which the binding signal (normalized occupancy) turned out to be 0.0878.

Turning to TGGCGGAA, the binding signal (normalized occupancy) turned out to be 0.0725.

Take GAATAGCC: the binding signal (normalized occupancy) stood at 0.0688.

ACACGAGT: the binding signal (normalized occupancy) was determined as 0.0979.

Consider CGCGCCGA, for which the binding signal (normalized occupancy) was 0.0721.

In the case of AGACTACA, the binding signal (normalized occupancy) was found to be 0.0772.

Take AACATCAA: the binding signal (normalized occupancy) stood at 0.0812.

As to GCCAGTCC, the binding signal (normalized occupancy) worked out at 0.0721.

Take CTTCGGGC: the binding signal (normalized occupancy) came to 0.0721.

As to GCGCGAAA, the binding signal (normalized occupancy) turned out to be 0.0771.

As to TCCTGCAA, the binding signal (normalized occupancy) was 0.0703.

CAACATGG: the binding signal (normalized occupancy) is 0.0932.

As to TTGTAAAA, the binding signal (normalized occupancy) stood at 0.0743.

In the case of AAAAATAG, the binding signal (normalized occupancy) worked out at 0.0772.

As for ACTTCTAA, the binding signal (normalized occupancy) came to 0.0705.

For ACCCGGGT, the binding signal (normalized occupancy) stood at 0.0716.

Turning to CTAAGCAA, the binding signal (normalized occupancy) was determined as 0.0729.

As for GTATAGCA, the binding signal (normalized occupancy) is 0.0777.

For ATATTTAC, the binding signal (normalized occupancy) is 0.0787.

As to CCCCTTCC, the binding signal (normalized occupancy) stood at 0.0746.

For the sequence CCGCTTCA, the binding signal (normalized occupancy) came to 0.067.

For ATCTGAAA, the binding signal (normalized occupancy) came out at 0.0735.

ACATTGAG: the binding signal (normalized occupancy) worked out at 0.0809.

CTTATCAC: the binding signal (normalized occupancy) stood at 0.075.

For AGCAAGTG, the binding signal (normalized occupancy) was 0.0753.

On to AACTAATC, for which the binding signal (normalized occupancy) came out at 0.074.

On to ATAGGGTC, for which the binding signal (normalized occupancy) worked out at 0.078.

As for ACACGATC, the binding signal (normalized occupancy) is 0.0822.

With CGAGCCAA, the binding signal (normalized occupancy) was found to be 0.0691.

For the sequence GATTCTTA, the binding signal (normalized occupancy) was determined as 0.0756.

For CGAGTCAC, the binding signal (normalized occupancy) turned out to be 0.076.

For the sequence GAAAATCA, the binding signal (normalized occupancy) is 0.0778.

Take ACACGTTG: the binding signal (normalized occupancy) came out at 0.128.

Take CTAAAAAC: the binding signal (normalized occupancy) was found to be 0.0747.

For CGTTAGTC, the binding signal (normalized occupancy) was found to be 0.0712.

Turning to CATCTAAA, the binding signal (normalized occupancy) stood at 0.078.

For the sequence GTGCCACA, the binding signal (normalized occupancy) came to 0.0818.

TAATGTAA: the binding signal (normalized occupancy) was 0.0864.

As for GACGGTAA, the binding signal (normalized occupancy) was 0.0742.

Consider CGTTACGC, for which the binding signal (normalized occupancy) was 0.0704.

Turning to GTTCAAAC, the binding signal (normalized occupancy) amounted to 0.0726.

Take ATAAGGCA: the binding signal (normalized occupancy) turned out to be 0.0783.

As to AGTAGACG, the binding signal (normalized occupancy) was 0.0773.

Take GCGAAGGA: the binding signal (normalized occupancy) was found to be 0.069.

For the sequence CCTTTGAG, the binding signal (normalized occupancy) came to 0.0735.

For CGCATAAG, the binding signal (normalized occupancy) was found to be 0.0761.

Consider CACATCAC, for which the binding signal (normalized occupancy) was determined as 0.0848.

Consider GCATGTTA, for which the binding signal (normalized occupancy) amounted to 0.0976.

In the case of AGCGTTAT, the binding signal (normalized occupancy) came out at 0.0808.

Consider GCCGTATA, for which the binding signal (normalized occupancy) stood at 0.0769.

Consider CCACATGA, for which the binding signal (normalized occupancy) was 0.134.

As to TTGTACAA, the binding signal (normalized occupancy) was 0.0755.

In the case of CGGTACAC, the binding signal (normalized occupancy) was 0.0815.

For the sequence GCGTAGCA, the binding signal (normalized occupancy) came to 0.0754.

In the case of TGCCTCAA, the binding signal (normalized occupancy) is 0.0739.

In the case of AATTAAAA, the binding signal (normalized occupancy) was 0.0682.

On to ATTATGGG, for which the binding signal (normalized occupancy) came out at 0.0828.

CACGCACC: the binding signal (normalized occupancy) is 0.0913.

For ATTTGCTA, the binding signal (normalized occupancy) turned out to be 0.0767.

Regarding ACAGCCGG, the binding signal (normalized occupancy) worked out at 0.0693.

For CAATAAAA, the binding signal (normalized occupancy) was 0.0779.

On to ACTGCCAT, for which the binding signal (normalized occupancy) is 0.0804.

As for ATATCGCG, the binding signal (normalized occupancy) was 0.0757.

Regarding GGCCAGCC, the binding signal (normalized occupancy) worked out at 0.0687.

Turning to ACTGGCGC, the binding signal (normalized occupancy) is 0.07.

Take CTTAGCTA: the binding signal (normalized occupancy) stood at 0.0685.

Turning to TGAGGGCA, the binding signal (normalized occupancy) came out at 0.0748.

On to CGTGTCAA, for which the binding signal (normalized occupancy) came to 0.0866.

Consider AGCTGATC, for which the binding signal (normalized occupancy) came out at 0.0718.

For CGTTTGTC, the binding signal (normalized occupancy) was 0.0781.

Regarding AGCTCTAC, the binding signal (normalized occupancy) turned out to be 0.074.

In the case of ACAATTTC, the binding signal (normalized occupancy) was found to be 0.0747.

TGCCTACA: the binding signal (normalized occupancy) came to 0.0783.

Regarding GATGTGGA, the binding signal (normalized occupancy) came to 0.0847.

On to CCGTCTCA, for which the binding signal (normalized occupancy) turned out to be 0.0725.

Take ACGTAAGC: the binding signal (normalized occupancy) was found to be 0.0775.

Consider AGGGGCAG, for which the binding signal (normalized occupancy) is 0.0704.

With GGCGGAAC, the binding signal (normalized occupancy) amounted to 0.0701.

Turning to CCGGATAC, the binding signal (normalized occupancy) was 0.0761.

As to ACCGCCGC, the binding signal (normalized occupancy) is 0.0717.

In the case of AACCCACC, the binding signal (normalized occupancy) amounted to 0.0807.

Regarding CCCAGACA, the binding signal (normalized occupancy) was 0.0761.

In the case of ATTTGATA, the binding signal (normalized occupancy) came out at 0.0826.

As for AGGTAATA, the binding signal (normalized occupancy) worked out at 0.076.

Regarding CCCGACGG, the binding signal (normalized occupancy) is 0.0682.

Consider GATTGACA, for which the binding signal (normalized occupancy) was 0.0783.

TACGATAA: the binding signal (normalized occupancy) is 0.08.

AAGCAAAC: the binding signal (normalized occupancy) was 0.074.

As for GTTCGGGA, the binding signal (normalized occupancy) worked out at 0.071.

ACTCTGCA: the binding signal (normalized occupancy) was determined as 0.0713.

For the sequence AGGATGCG, the binding signal (normalized occupancy) worked out at 0.0771.

AAACACCA: the binding signal (normalized occupancy) was found to be 0.0788.

Consider CGGTCTCC, for which the binding signal (normalized occupancy) was found to be 0.0734.

As for ACGTTTGA, the binding signal (normalized occupancy) came to 0.0872.

In the case of CGGGCTGA, the binding signal (normalized occupancy) stood at 0.0683.

Take GTCTTCAC: the binding signal (normalized occupancy) stood at 0.0747.

Consider TAATCAAA, for which the binding signal (normalized occupancy) came to 0.0738.

For the sequence CCGATGAC, the binding signal (normalized occupancy) came out at 0.0747.

On to GGCGGACA, for which the binding signal (normalized occupancy) came out at 0.0743.

In the case of CATTAGTC, the binding signal (normalized occupancy) was 0.075.

In the case of CCTGAGAA, the binding signal (normalized occupancy) amounted to 0.076.

Turning to GCTTATAC, the binding signal (normalized occupancy) was 0.0806.

For the sequence GCATCGGC, the binding signal (normalized occupancy) turned out to be 0.072.

With CGGAGTAG, the binding signal (normalized occupancy) stood at 0.0682.

With ACCTTTTC, the binding signal (normalized occupancy) came out at 0.0755.

GTCATTCA: the binding signal (normalized occupancy) is 0.0795.

With ATGATGAG, the binding signal (normalized occupancy) was 0.0884.

As to ACTTAGGC, the binding signal (normalized occupancy) came out at 0.0776.

In the case of ACCTGTTC, the binding signal (normalized occupancy) worked out at 0.079.

Turning to ACGGACGA, the binding signal (normalized occupancy) was found to be 0.0716.

For the sequence CAGAGGCC, the binding signal (normalized occupancy) came to 0.0686.

On to ATCGCAGC, for which the binding signal (normalized occupancy) was determined as 0.069.

In the case of GTGGGGAA, the binding signal (normalized occupancy) stood at 0.0843.

With ACGCACGA, the binding signal (normalized occupancy) came to 0.091.

As for AGCTATAT, the binding signal (normalized occupancy) is 0.0735.

Regarding GTCTTCGA, the binding signal (normalized occupancy) came to 0.0675.

Take GACGATCC: the binding signal (normalized occupancy) amounted to 0.077.

With TCCAGTCA, the binding signal (normalized occupancy) came out at 0.0749.

For the sequence TGACGGCA, the binding signal (normalized occupancy) worked out at 0.0756.

As for TCGTCAGA, the binding signal (normalized occupancy) was 0.0695.

With GATTACAC, the binding signal (normalized occupancy) was 0.0851.

GCATAAGA: the binding signal (normalized occupancy) was determined as 0.0799.
